Out of some 44,000 compounds screened, about 340 (0.77%) were called active. Not shown: some 5% with an inconclusive outcome. The call rests on the fitted dose curve; in most records, active means well fitted inhibition curve with a large enough effect; inconclusive means small, poorly fitted or top-dose-only effect; inactive means flat fitted curve, though single readings scatter. The list shows a part of the results.
Test: Acumen qHTS Assay for Inhibitors of the mTORC1 Signaling Pathway in MEF (Tsc2-/-, p53-/-) Cells: Sytravon;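 further: plate controls were DMSO for no effect and rapamycin for full effect; nearly all actives have a fitted effect of over 50% in size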
Conditions: phospho-rpS6 immunofluorescence/PI, 24 h; series mostly up to 38.3 µM; activity change, negative = inhibition: at the top concentration
Outline: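 Read-out: phospho-S6 Alexa-488 intensity over PI intensity per well, scored as % active cells using thresholds from rapamycin (7.5 nM) and DMSO controls. Tsc2-/-, p53-/- MEFs exposed to compound for 24 h; PI cell count recorded as viability.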

SMILES | activity change, negative = inhibition
O=C(C1CCN(c2ncnc3c2nc2n3CCCCC2)CC1)N1CCN(c2ccccc2F)CC1 | inactive: 2.95%
CCOc1ccc2oc(=O)cc(CN3CCN(C(=O)c4ccc(OC)c(OC)c4)CC3)c2c1 | inactive: -4.69%
COc1ccc(CNC(=O)c2cc3c(=O)n(Cc4cccnc4)ccc3nc2C)cc1 | inactive: -11.2%
COc1ccccc1CNC(=O)c1cc2c(=O)oc3ccc(C)cc3c2s1 | inactive: -6.12%
CCCNS(=O)(=O)c1cc(-c2nn3c(C)nnc3c3ccccc23)ccc1C | inactive: -11.2%
Cc1ccc2oc(-c3ccc(Cl)c(NC(=O)Cc4ccccc4)c3)nc2c1 | inactive: -2.08%
COc1ccccc1CCNC(=O)Cc1ccc(NC(=O)N2CCSc3ncccc32)cc1 | inactive: -9.39%
Cc1ccc(-n2c(=O)c3c4c(sc3n(Cc3cc(=O)n5cc(Cl)ccc5n3)c2=O)CCC4)cc1C | inactive: -4.57%
CCOC(=O)c1ccccc1NC(=O)CN(c1cccc(C)c1C)S(=O)(=O)c1ccccc1 | inactive: -10.6%
CC(=O)N1CCCc2cc(S(=O)(=O)N3CCCC(C(=O)NCc4ccccc4Cl)C3)ccc21 (stereo unspecified) | inactive: 6.2%
CCc1ccc(-c2nn(CC(=O)NC3CCCCC3)c3c2cnc2ccc(F)cc23)cc1 | inactive: -6.75%
CCOc1ccccc1NC(=O)C1CCN(S(=O)(=O)c2ccc3[nH]c(=O)oc3c2)CC1 | inactive: -2.38%
CC1CCc2c(cc(-c3ccccc3)n2-c2ccc(C(=O)NC(C)C)cc2)C1 (stereo unspecified) | inactive: -14.2%
CCc1cccc(OCC(=O)Nc2ccc(S(=O)(=O)Nc3ncccn3)cc2)c1 | inactive: -0.716%
CC(C)(C)c1ccc(OCc2nc3ccccc3n2CCOc2ccccc2)cc1 | inactive: 0.568%
Cc1cccc(C)c1OCc1nc2c3cnn(-c4ccccc4F)c3ncn2n1 | inactive: -9.24%
CC(=O)c1ccc(S(=O)(=O)N2CCn3cccc3C2c2ccccc2F)cc1 (stereo unspecified) | inactive: -2.14%
Cc1cc(C)cc(NC(=O)Cc2csc(C)n2)c1 | inactive: -4.47%
O=C(CCS(=O)(=O)c1cc(Br)cc2c1N(C(=O)C1CC1)CC2)N1CCN(c2cccc(Cl)c2)CC1 | inactive: 8.62%
COc1ccc(-c2nc3ccccc3n3c(-c4cccc(C)c4)c4c(=O)n(C)c(=O)n(C)c4c23)cc1OC | inactive: 6.33%
CCC(C)NC(=O)c1c(C)oc2ncn(CC(C)C)c(=O)c12 (stereo unspecified) | inactive: 2.78%

SMILES | activity change, negative = inhibition
CCCCNC(=O)C1CCC(Cn2c(=O)c3sccc3n(Cc3ccccc3)c2=O)CC1 (stereo unspecified) | inactive: 1.35%
O=C(Cn1c(=O)n(CCc2ccccc2)c(=O)c2cccnc21)Nc1ccc(F)cc1 | inactive: 2.1%
CCC(=O)N1CCc2cc(S(=O)(=O)NC(C(=O)NCCc3ccc(OC)c(OC)c3)C(C)C)ccc21 (stereo unspecified) | inactive: -0.191%
Cc1cc(C)c(NC(=O)c2nc3ccccc3nc2N2CCCCC2)c(C)c1 | inactive: -5.07%
CC1=C(C(=O)OC2CCCC2)C(c2c(Cl)cccc2Cl)CC(=O)N1 (stereo unspecified) | inactive: -3.44%
CCCCNC(=O)CSc1nc2cc3c(cc2c(=O)n1CCCC(=O)NCCc1ccc(OC)c(OC)c1)OCO3 | inactive: -0.253%
Cc1cc(C(=O)N2CCN(c3ccccc3)CC2)c2c(C)nn(-c3cccc(F)c3)c2n1 | inactive: -5.4%
COc1cc(NC(=O)C2CCN(C(=O)c3sc4nc[nH]c(=O)c4c3C)CC2)cc(OC)c1OC | inactive: -1.55%
Cc1ccc(N2C(=O)c3n[nH]c(C)c3C2c2ccc(Cl)cc2)cc1 (stereo unspecified) | inactive: -10.4%
Cc1cc(C)cc(NC(=O)CSc2oc(-c3ccccc3)nc2S(=O)(=O)c2ccc(Cl)cc2)c1 | inactive: -4.51%
CCOC(=O)c1ccccc1NC(=O)Cn1ncc2c1-c1ccccc1OC2 | inactive: 0.872%
CCOC(=O)c1[nH]c2c(c1Cc1ccccc1OC)C(=O)CC(c1ccc(OC)cc1)C2 (stereo unspecified) | inactive: -2.02%
Cc1ccc(CNC(=O)c2nn(-c3ccc(Cl)cc3)nc2CO)cc1 | inactive: 3.08%
Cc1ccccc1CSc1nnc2[nH]c(=O)cc(-c3ccccc3)n12 | inactive: 0.988%
CCc1ccc(-n2c(=O)c3c4c(sc3n(Cc3cc(=O)n5c(C)cccc5n3)c2=O)CCC4)cc1 | inactive: 0.991%
Cc1ccc(NC(=O)Cn2nc(C(F)(F)F)c3c2CCCC3)cc1C | inactive: 0.721%
CCc1ccccc1NS(=O)(=O)c1ccc2nc(-c3ccccc3)[nH]c2c1 | inactive: -19%
CC(C)OCCCNC(=O)C(=O)Nc1c2c(nn1-c1ccccc1)CS(=O)(=O)C2 | inactive: -20.5%
Cc1ccc2c(c1)N(CC(=O)NCCc1ccccc1)C(=O)CO2 | inactive: -3.49%
CCOC(=O)c1c(C)[nH]c(C)c1S(=O)(=O)N1CCC(C(=O)Nc2ccc(OCC)cc2)CC1 | inactive: -4.9%
CCCCn1cc(S(=O)(=O)c2cc(C)ccc2C)c(=O)c2cc(F)c(N3CCC(C)CC3)cc21 | inactive: -8.55%

SMILES | activity change, negative = inhibition
CC(C)OCCCNc1ncnc2sc3c(c12)CCCC3 | inactive: -20.2%
Cc1ccc(C)c(Cn2c(=O)n(CCCCC(=O)NCc3ccc4c(c3)OCO4)c(=O)c3ccccc32)c1 | inactive: -20.7%
CCCC(=O)Nc1cc2nn(-c3ccccc3)nc2cc1C | inactive: 4.59%
CCc1ccccc1NC(=O)Nc1c(C)n(C)n(-c2ccccc2)c1=O | inactive: 1.35%
CCc1cccc(NC(=O)CN(c2ccc(C)c(C)c2)S(=O)(=O)c2ccsc2C(=O)OC)c1 | inactive: -16.3%
Cc1ccc(C)c(N2CCN(C(=O)CN3C(=O)COc4ccc(S(=O)(=O)N5CCCC5)cc43)CC2)c1 | inactive: 0.425%
COc1ccc(C(=O)NCC(c2ccco2)S(=O)(=O)c2ccc(F)cc2)cc1 (stereo unspecified) | inactive: -7.98%
CCOC(=O)c1ccc(N2C(=O)c3[nH]nc(-c4ccc(C)cc4)c3C2c2cccs2)cc1 (stereo unspecified) | inactive: -7.68%
CCCc1nc2nc(C)c(NS(=O)(=O)c3ccc(CC(C)C)cc3)c(=O)n2[nH]1 | inactive: 2.11%
CSc1ncc(C(=O)Nc2ccccc2C(F)(F)F)c(-c2ccccc2)n1 | inactive: -10.8%
CCCn1c(CCC(=O)Nc2cc(C(=O)OC)cc(C(=O)OC)c2)nc2cccnc21 | inactive: -15%
CCCCOc1ccc(Cn2c(=O)sc3ccccc32)cc1OC | inactive: -4.84%
CCCn1c(CCC(=O)Nc2cc(OC)cc(OC)c2)nc2cccnc21 | inactive: -2.07%
COC(=O)c1scc(-c2ccc(C)cc2)c1S(=O)(=O)Nc1cc(Cl)c(OC)cc1OC | inactive: -26.3%
CCOC(=O)c1[nH]cnc1C(=O)Nc1cccc(OC)c1 | inactive: 0.435%
Cc1ccccc1CCNC(=O)c1ccc2c(c1)nc1n2CCOC1 | inactive: 0.0602%
Cc1cc(NC(=O)CCn2c(=O)c3cccn3c3cccnc32)ccc1Br | inactive: -4.9%
CCC(=O)N1c2ccccc2CC1C(=O)NCCc1cc(OC)c(OC)c(OC)c1 (stereo unspecified) | inactive: 5.62%
CCCN1CCN(c2nnc(-n3cccc3C(=O)Nc3cc(Cl)ccc3C)s2)CC1 | inactive: -5.23%
